Article PMC12820563, “FoxP3 forms a head-to-head dimer in vivo and stabilizes its multimerization on adjacent microsatellites”
Some of the results follow.

target: T1, MBP-FoxP1dN (Mus musculus, UniProt P58462 326-579); test: PD-seq (MBP pull-down with sequencing); 20 mM Tris-HCl pH 7.5, 100 mM NaCl, 1.5 mM MgCl2, 0.4 uM protein, 0.1 uM dsDNA library, 30 min, room temperature, amylose pull-down; high values mean tight binding; conditions: protein: recombinant; tags: His6-MBP; chain copies: 2; dsDNA, one strand shown
T1 sequence: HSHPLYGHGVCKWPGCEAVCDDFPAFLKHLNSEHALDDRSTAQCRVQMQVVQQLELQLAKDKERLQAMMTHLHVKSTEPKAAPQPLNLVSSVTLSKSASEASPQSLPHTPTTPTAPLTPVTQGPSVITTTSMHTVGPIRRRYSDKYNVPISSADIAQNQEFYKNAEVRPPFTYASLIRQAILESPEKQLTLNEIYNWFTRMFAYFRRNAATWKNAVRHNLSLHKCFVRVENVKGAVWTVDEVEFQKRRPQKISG
Method in brief: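 His6-MBP-tagged mouse FoxP3 or FoxP1 fragment lacking the N-terminus, expressed in E. coli, was mixed at 0.4 µM with 0.1 µM Klenow-filled double-stranded degenerate DNA library. Incubation was 30 min at room temperature in Tris pH 7.5 buffer with NaCl and MgCl2. Complexes were caught on amylose resin and washed three times; DNA was released with proteinase K, PCR-barcoded and Illumina-sequenced. Binding is reads-per-million enrichment, pull-down over input, with replicates pooled.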

Sequence | binding signal
GATGATTGTTCTCCCAGCTGATGAATTAGGATAATCGAGTAAACAAATTTTCCTAATCTTTCTGTTCAAGCGCCATCTAC | 1.2 RPM ratio (pull-down/input)
GATGATTGTTCTCCCAGCTGATGAATTTCGTTATTCGAGTAAACAAATTTTCCTAATCTTTCTGTTCAAGCGCCATCTAC | 1.01 RPM ratio (pull-down/input)
GATGATTGTTCTCCCAGCTGATGAATTCAATCGGTCGAGTAAACAAATTTTCCTAATCTTTCTGTTCAAGCGCCATCTAC | 0.861 RPM ratio (pull-down/input)
GATGATTGTTCTCCCAGCTGATGAATTAGTTCCGTCGAGTAAACAAATTTTCCTAATCTTTCTGTTCAAGCGCCATCTAC | 0.958 RPM ratio (pull-down/input)
GATGATTGTTCTCCCAGCTGATGAATTAATCGGGTCGAGTAAACAAATTTTCCTAATCTTTCTGTTCAAGCGCCATCTAC | 0.746 RPM ratio (pull-down/input)
GATGATTGTTCTCCCAGCTGATGAATTCGTTAGCTCGAGTAAACAAATTTTCCTAATCTTTCTGTTCAAGCGCCATCTAC | 0.868 RPM ratio (pull-down/input)
GATGATTGTTCTCCCAGCTGATGAATTCTGAGTGTCGAGTAAACAAATTTTCCTAATCTTTCTGTTCAAGCGCCATCTAC | 0.844 RPM ratio (pull-down/input)
GATGATTGTTCTCCCAGCTGATGAATTAGCGGCCTCGAGTAAACAAATTTTCCTAATCTTTCTGTTCAAGCGCCATCTAC | 0.849 RPM ratio (pull-down/input)
GATGATTGTTCTCCCAGCTGATGAATTACCCACGTCGAGTAAACAAATTTTCCTAATCTTTCTGTTCAAGCGCCATCTAC | 0.972 RPM ratio (pull-down/input)
GATGATTGTTCTCCCAGCTGATGAATTCGAAATGTCGAGTAAACAAATTTTCCTAATCTTTCTGTTCAAGCGCCATCTAC | 0.844 RPM ratio (pull-down/input)
GATGATTGTTCTCCCAGCTGATGAATTAACATCTTCGAGTAAACAAATTTTCCTAATCTTTCTGTTCAAGCGCCATCTAC | 1.06 RPM ratio (pull-down/input)
GATGATTGTTCTCCCAGCTGATGAATTTAGAAGTTCGAGTAAACAAATTTTCCTAATCTTTCTGTTCAAGCGCCATCTAC | 0.9 RPM ratio (pull-down/input)
GATGATTGTTCTCCCAGCTGATGAATTTGTCGCGTCGAGTAAACAAATTTTCCTAATCTTTCTGTTCAAGCGCCATCTAC | 1.07 RPM ratio (pull-down/input)
GATGATTGTTCTCCCAGCTGATGAATTCGGTACGTCGAGTAAACAAATTTTCCTAATCTTTCTGTTCAAGCGCCATCTAC | 0.885 RPM ratio (pull-down/input)
GATGATTGTTCTCCCAGCTGATGAATTACCTATCTCGAGTAAACAAATTTTCCTAATCTTTCTGTTCAAGCGCCATCTAC | 0.95 RPM ratio (pull-down/input)
GATGATTGTTCTCCCAGCTGATGAATTTATCTTTTCGAGTAAACAAATTTTCCTAATCTTTCTGTTCAAGCGCCATCTAC | 1.32 RPM ratio (pull-down/input)
GATGATTGTTCTCCCAGCTGATGAATTTAAGATCTCGAGTAAACAAATTTTCCTAATCTTTCTGTTCAAGCGCCATCTAC | 0.801 RPM ratio (pull-down/input)
GATGATTGTTCTCCCAGCTGATGAATTAGTGCTGTCGAGTAAACAAATTTTCCTAATCTTTCTGTTCAAGCGCCATCTAC | 1.18 RPM ratio (pull-down/input)
GATGATTGTTCTCCCAGCTGATGAATTAAAACCATCGAGTAAACAAATTTTCCTAATCTTTCTGTTCAAGCGCCATCTAC | 1.07 RPM ratio (pull-down/input)
GATGATTGTTCTCCCAGCTGATGAATTCTACAAGTCGAGTAAACAAATTTTCCTAATCTTTCTGTTCAAGCGCCATCTAC | 0.831 RPM ratio (pull-down/input)
GATGATTGTTCTCCCAGCTGATGAATTAATACTGTCGAGTAAACAAATTTTCCTAATCTTTCTGTTCAAGCGCCATCTAC | 1.05 RPM ratio (pull-down/input)

Sequence | binding signal
GATGATTGTTCTCCCAGCTGATGAATTGTTGCCTTCGAGTAAACAAATTTTCCTAATCTTTCTGTTCAAGCGCCATCTAC | 1.49 RPM ratio (pull-down/input)
GATGATTGTTCTCCCAGCTGATGAATTTAGGGTGTCGAGTAAACAAATTTTCCTAATCTTTCTGTTCAAGCGCCATCTAC | 0.941 RPM ratio (pull-down/input)
GATGATTGTTCTCCCAGCTGATGAATTGTGTAGATCGAGTAAACAAATTTTCCTAATCTTTCTGTTCAAGCGCCATCTAC | 1.29 RPM ratio (pull-down/input)
GATGATTGTTCTCCCAGCTGATGAATTGTGCTCCTCGAGTAAACAAATTTTCCTAATCTTTCTGTTCAAGCGCCATCTAC | 0.997 RPM ratio (pull-down/input)
GATGATTGTTCTCCCAGCTGATGAATTTGGTTTTTCGAGTAAACAAATTTTCCTAATCTTTCTGTTCAAGCGCCATCTAC | 0.945 RPM ratio (pull-down/input)
GATGATTGTTCTCCCAGCTGATGAATTTGGAATATCGAGTAAACAAATTTTCCTAATCTTTCTGTTCAAGCGCCATCTAC | 1.01 RPM ratio (pull-down/input)
GATGATTGTTCTCCCAGCTGATGAATTAAGGACATCGAGTAAACAAATTTTCCTAATCTTTCTGTTCAAGCGCCATCTAC | 1.06 RPM ratio (pull-down/input)
GATGATTGTTCTCCCAGCTGATGAATTATGCTGATCGAGTAAACAAATTTTCCTAATCTTTCTGTTCAAGCGCCATCTAC | 1.19 RPM ratio (pull-down/input)
GATGATTGTTCTCCCAGCTGATGAATTGCATGTTTCGAGTAAACAAATTTTCCTAATCTTTCTGTTCAAGCGCCATCTAC | 1.44 RPM ratio (pull-down/input)
GATGATTGTTCTCCCAGCTGATGAATTACTGAGATCGAGTAAACAAATTTTCCTAATCTTTCTGTTCAAGCGCCATCTAC | 0.956 RPM ratio (pull-down/input)
GATGATTGTTCTCCCAGCTGATGAATTGTTGCAGTCGAGTAAACAAATTTTCCTAATCTTTCTGTTCAAGCGCCATCTAC | 1.51 RPM ratio (pull-down/input)
GATGATTGTTCTCCCAGCTGATGAATTTTTTTTATCGAGTAAACAAATTTTCCTAATCTTTCTGTTCAAGCGCCATCTAC | 0.958 RPM ratio (pull-down/input)
GATGATTGTTCTCCCAGCTGATGAATTGCTGGACTCGAGTAAACAAATTTTCCTAATCTTTCTGTTCAAGCGCCATCTAC | 0.876 RPM ratio (pull-down/input)
GATGATTGTTCTCCCAGCTGATGAATTCCTTTGATCGAGTAAACAAATTTTCCTAATCTTTCTGTTCAAGCGCCATCTAC | 0.831 RPM ratio (pull-down/input)
GATGATTGTTCTCCCAGCTGATGAATTTTCAACCTCGAGTAAACAAATTTTCCTAATCTTTCTGTTCAAGCGCCATCTAC | 0.858 RPM ratio (pull-down/input)
GATGATTGTTCTCCCAGCTGATGAATTTCAAACATCGAGTAAACAAATTTTCCTAATCTTTCTGTTCAAGCGCCATCTAC | 1.18 RPM ratio (pull-down/input)
GATGATTGTTCTCCCAGCTGATGAATTTTTCTGATCGAGTAAACAAATTTTCCTAATCTTTCTGTTCAAGCGCCATCTAC | 0.867 RPM ratio (pull-down/input)
GATGATTGTTCTCCCAGCTGATGAATTGTTAAGCTCGAGTAAACAAATTTTCCTAATCTTTCTGTTCAAGCGCCATCTAC | 0.991 RPM ratio (pull-down/input)
GATGATTGTTCTCCCAGCTGATGAATTCAACATTTCGAGTAAACAAATTTTCCTAATCTTTCTGTTCAAGCGCCATCTAC | 0.941 RPM ratio (pull-down/input)
GATGATTGTTCTCCCAGCTGATGAATTTAAAGGGTCGAGTAAACAAATTTTCCTAATCTTTCTGTTCAAGCGCCATCTAC | 0.811 RPM ratio (pull-down/input)
GATGATTGTTCTCCCAGCTGATGAATTCCAGTCCTCGAGTAAACAAATTTTCCTAATCTTTCTGTTCAAGCGCCATCTAC | 0.794 RPM ratio (pull-down/input)

Sequence | binding signal
GATGATTGTTCTCCCAGCTGATGAATTAAGTGGGTCGAGTAAACAAATTTTCCTAATCTTTCTGTTCAAGCGCCATCTAC | 0.972 RPM ratio (pull-down/input)
GATGATTGTTCTCCCAGCTGATGAATTCCAGATCTCGAGTAAACAAATTTTCCTAATCTTTCTGTTCAAGCGCCATCTAC | 0.753 RPM ratio (pull-down/input)
GATGATTGTTCTCCCAGCTGATGAATTTCAAATGTCGAGTAAACAAATTTTCCTAATCTTTCTGTTCAAGCGCCATCTAC | 0.847 RPM ratio (pull-down/input)
GATGATTGTTCTCCCAGCTGATGAATTCCTCACCTCGAGTAAACAAATTTTCCTAATCTTTCTGTTCAAGCGCCATCTAC | 0.754 RPM ratio (pull-down/input)
GATGATTGTTCTCCCAGCTGATGAATTCTGAGCATCGAGTAAACAAATTTTCCTAATCTTTCTGTTCAAGCGCCATCTAC | 1.06 RPM ratio (pull-down/input)
GATGATTGTTCTCCCAGCTGATGAATTCACTTGATCGAGTAAACAAATTTTCCTAATCTTTCTGTTCAAGCGCCATCTAC | 0.902 RPM ratio (pull-down/input)
GATGATTGTTCTCCCAGCTGATGAATTAATAAATTCGAGTAAACAAATTTTCCTAATCTTTCTGTTCAAGCGCCATCTAC | 1.17 RPM ratio (pull-down/input)
GATGATTGTTCTCCCAGCTGATGAATTTGTCTTGTCGAGTAAACAAATTTTCCTAATCTTTCTGTTCAAGCGCCATCTAC | 1.11 RPM ratio (pull-down/input)
GATGATTGTTCTCCCAGCTGATGAATTAGTGGATTCGAGTAAACAAATTTTCCTAATCTTTCTGTTCAAGCGCCATCTAC | 0.961 RPM ratio (pull-down/input)
GATGATTGTTCTCCCAGCTGATGAATTGGCAATATCGAGTAAACAAATTTTCCTAATCTTTCTGTTCAAGCGCCATCTAC | 1.16 RPM ratio (pull-down/input)
GATGATTGTTCTCCCAGCTGATGAATTGAAGTGATCGAGTAAACAAATTTTCCTAATCTTTCTGTTCAAGCGCCATCTAC | 0.877 RPM ratio (pull-down/input)
GATGATTGTTCTCCCAGCTGATGAATTCTTGTGATCGAGTAAACAAATTTTCCTAATCTTTCTGTTCAAGCGCCATCTAC | 1.15 RPM ratio (pull-down/input)
GATGATTGTTCTCCCAGCTGATGAATTCACCTCCTCGAGTAAACAAATTTTCCTAATCTTTCTGTTCAAGCGCCATCTAC | 0.774 RPM ratio (pull-down/input)
GATGATTGTTCTCCCAGCTGATGAATTATGCGCCTCGAGTAAACAAATTTTCCTAATCTTTCTGTTCAAGCGCCATCTAC | 1.13 RPM ratio (pull-down/input)
GATGATTGTTCTCCCAGCTGATGAATTAGCCAAGTCGAGTAAACAAATTTTCCTAATCTTTCTGTTCAAGCGCCATCTAC | 0.791 RPM ratio (pull-down/input)
GATGATTGTTCTCCCAGCTGATGAATTGAATGCGTCGAGTAAACAAATTTTCCTAATCTTTCTGTTCAAGCGCCATCTAC | 1.14 RPM ratio (pull-down/input)
GATGATTGTTCTCCCAGCTGATGAATTGCGCAACTCGAGTAAACAAATTTTCCTAATCTTTCTGTTCAAGCGCCATCTAC | 1.16 RPM ratio (pull-down/input)
GATGATTGTTCTCCCAGCTGATGAATTATCCTATTCGAGTAAACAAATTTTCCTAATCTTTCTGTTCAAGCGCCATCTAC | 0.973 RPM ratio (pull-down/input)
GATGATTGTTCTCCCAGCTGATGAATTGACACGGTCGAGTAAACAAATTTTCCTAATCTTTCTGTTCAAGCGCCATCTAC | 1.06 RPM ratio (pull-down/input)
GATGATTGTTCTCCCAGCTGATGAATTAGCTACTTCGAGTAAACAAATTTTCCTAATCTTTCTGTTCAAGCGCCATCTAC | 0.921 RPM ratio (pull-down/input)
GATGATTGTTCTCCCAGCTGATGAATTTGGCTCCTCGAGTAAACAAATTTTCCTAATCTTTCTGTTCAAGCGCCATCTAC | 0.857 RPM ratio (pull-down/input)
